Reference: the supplement of paper PMC3334620
Over roughly 33,000 sequences, “E-score (-0.5 to 0.5)” has its median near -0.054; the highest 2% begin near 0.35. Some of the results follow.

Target: T1, Stb5 (UniProt P38699)
T1 sequence: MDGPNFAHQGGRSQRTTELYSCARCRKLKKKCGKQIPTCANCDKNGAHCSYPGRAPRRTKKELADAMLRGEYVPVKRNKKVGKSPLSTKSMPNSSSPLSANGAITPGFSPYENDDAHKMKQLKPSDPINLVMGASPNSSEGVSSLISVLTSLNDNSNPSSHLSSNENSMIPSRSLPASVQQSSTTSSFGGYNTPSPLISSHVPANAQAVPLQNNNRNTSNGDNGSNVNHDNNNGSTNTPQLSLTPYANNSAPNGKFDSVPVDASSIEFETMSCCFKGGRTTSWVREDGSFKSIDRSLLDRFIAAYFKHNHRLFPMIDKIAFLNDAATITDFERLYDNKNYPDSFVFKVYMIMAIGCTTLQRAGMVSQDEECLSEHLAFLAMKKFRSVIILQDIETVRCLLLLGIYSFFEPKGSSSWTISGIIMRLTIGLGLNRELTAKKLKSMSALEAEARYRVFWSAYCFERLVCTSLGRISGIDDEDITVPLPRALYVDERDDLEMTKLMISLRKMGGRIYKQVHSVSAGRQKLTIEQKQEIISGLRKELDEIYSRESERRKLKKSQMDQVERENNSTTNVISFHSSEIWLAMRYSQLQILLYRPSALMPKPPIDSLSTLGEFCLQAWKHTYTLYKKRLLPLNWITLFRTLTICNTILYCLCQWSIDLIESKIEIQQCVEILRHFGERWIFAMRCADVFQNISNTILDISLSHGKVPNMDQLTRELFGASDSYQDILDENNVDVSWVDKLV
Assay: PBM E-score (8-mer binding enrichment) (E-score (-0.5 to 0.5)); higher = stronger / more preferred TF binding; most listed sequences are background and not binding sites
Settings: protein concentration: 200 nM; construct: GST-full length
Protocol: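 Universal 'all 10-mer' protein binding microarrays (Agilent AMADID 015681) probed with GST-tagged S. cerevisiae TFs (full-length or DBD) made by in vitro transcription/translation (PURExpress), about 100-200 nM. Bound TF was detected with fluorescent anti-GST. Each ungapped 8-mer (which stands for itself and its reverse complement) is scored by the PBM enrichment score (E-score), a modified Wilcoxon-Mann-Whitney statistic from -0.5 to +0.5, computed with the Universal PBM Analysis Suite. Scale: above 0.35 generally sequence-specific binding.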

| Sequence | PBM E-score |
| --- | --- |
| CAATGATC | -0.281 |
| ATAGTACG | -0.0437 |
| CATCGATG | -0.254 |
| AAGCCAAG | -0.246 |
| CTGCGACA | 0.166 |
| GGGCTACC | -0.151 |
| CACACGGA | 0.233 |
| AGCATGCA | -0.285 |
| AGACACCT | -0.108 |
| CACTAATA | -0.0623 |
| CTCAAGAG | -0.295 |
| AGCTCTAA | -0.234 |
| CCTTACCG | 0.05 |
| ATATTGTA | -3e-05 |
| ATGTAGAC | 0.0624 |
| GTATTGTA | 0.103 |
| TAGGATGA | -0.12 |
| ATAGTTAG | 0.115 |
| GTTTAAGA | 0.156 |
| ACGCAGAA | -0.226 |
| ACAATTGA | -0.171 |
| ACCGCAGC | 0.29 |
| CTCTCAGC | -0.144 |
| AGTTTGAA | -0.0739 |
| CCCGCTCG | 0.296 |

| Sequence | PBM E-score |
| --- | --- |
| CCACGGGC | 0.184 |
| ATACCAGG | -0.215 |
| AGATTAAC | -0.0201 |
| CATGGGTA | -0.226 |
| ATAATCAG | -0.0824 |
| CGTATGAC | 0.163 |
| GTCTGGTA | -0.051 |
| GAGGACCC | -0.123 |
| GATGAAGC | -0.11 |
| TCTACCCA | -0.177 |
| GGCTCGAA | -0.104 |
| AAGCCTGC | -0.204 |
| CACGTAAG | -0.191 |
| CCGCTGTC | 0.269 |
| AAATTTGC | -0.0894 |
| AAATACTA | -0.191 |
| ATTGACAA | -0.104 |
| CCAGCAAA | -0.131 |
| TATACCGA | 0.26 |
| CAATAGGG | -0.236 |
| ACCTAGCG | 0.0651 |
| AGGGGCGG | 0.36 |
| ATAGCTGG | -0.0665 |
| ACATTGTC | 0.0388 |
| AAACCCAC | 0.136 |

| Sequence | PBM E-score |
| --- | --- |
| CGAGTCCC | 0.0941 |
| CACCTCCA | -0.105 |
| CACGTGCG | 0.156 |
| TAACAACA | -0.157 |
| ATTAGCCG | 0.0947 |
| CTTGTTGC | 0.00049 |
| ACCATAGC | -0.253 |
| ACACGTTA | -0.346 |
| AAAAATTC | -0.171 |
| AAAAGCAC | 0.0623 |
| CGGTGCAG | 0.134 |
| GGACCCCA | -0.188 |
| ACCTCTAC | -0.172 |
| GAGAGGTA | -0.153 |
| CAACTTTC | -0.0192 |
| GTTAACAA | 0.121 |
| AACAGTTC | -0.211 |
| CTCTTTGC | -0.146 |
| TATCTGAA | -0.136 |
| CTCGACCC | -0.245 |
| AAGACGGA | 0.182 |
| GAAGAGAA | -0.0777 |
| ATAGGAGC | 0.0257 |
| AATTTCGA | -0.116 |
| CTAGACAC | 0.034 |

| Sequence | PBM E-score |
| --- | --- |
| GTAGATTA | 0.0831 |
| AAAAACCG | 0.24 |
| TGCAGGAA | -0.102 |
| CCTAATTC | 0.00584 |
| ATAGGCTA | -0.154 |
| AGTAAACG | -0.0142 |
| AGATGCCT | -0.377 |
| CAAATCAC | -0.0836 |
| CGATGAAA | 0.0142 |
| CATATGGG | -0.0625 |
| ACTCGACG | -0.0726 |
| CCTCGGAC | 0.205 |
| GCCTCCGC | 0.139 |
| GTCGCACA | -0.0231 |
| GCGCCAAA | 0.0743 |
| GCCGTCCC | 0.112 |
| CCGATTAA | 0.282 |
| AATACTTC | -0.0945 |
| CGTAACCC | 0.181 |
| CATTGTCC | 0.111 |
| ACATCGTC | -0.0619 |
| AACAGGAA | -0.207 |
| CATCTGTC | -0.102 |
| CCCAAATC | -0.189 |
| CCAGTCCA | -0.132 |

| Sequence | PBM E-score |
| --- | --- |
| ATCACTCG | -0.151 |
| CCAGGATC | -0.143 |
| GTTTTAGA | -0.0303 |
| CCTAAAGG | -0.00265 |
| AGCTGCAG | -0.139 |
| AGCAGGTC | -0.208 |
| AGACTGCA | -0.243 |
| AAGCACTA | -0.143 |
| TATTGGCA | -0.163 |
| CACTAGGA | -0.0578 |
| GCTCCTTA | -0.0796 |
| AACTACGA | -0.189 |
| TCGCCCCA | -0.317 |
| CCACTACC | 0.0208 |
| CCTCCGAC | 0.294 |
| GGAGCGCC | 0.0979 |
| CCCGAGCC | 0.162 |
| CTAACACA | -0.0526 |
| ATGTTAGA | -0.295 |
| CTATTATA | 0.0578 |
| ACAACTTA | -0.175 |
| AGACAGGG | -0.161 |
| ATAACAAA | -0.00919 |
| ACCTTGTG | -0.177 |
| GTCCGTTA | 0.355 |

| Sequence | PBM E-score |
| --- | --- |
| CGAATAGC | 0.0153 |
| AAAATACA | -0.0908 |
| GAAGGGCA | -0.242 |
| CAGTCACC | 0.0656 |
| AGGATTTC | -0.16 |
| ACGGGTCT | 0.205 |
| CCTGTCAG | -0.247 |
| AAGTAGCA | -0.187 |
| ACTGCGCC | -0.108 |
| ATGGAACC | 0.0868 |
| AAATTAAG | -0.0785 |
| AGTTATTA | -0.0205 |
| CTATAACC | 0.0848 |
| CCATGCGG | 0.076 |
| CTTCCTGC | -0.17 |
| CAGTGCTA | -0.111 |
| CCCCCACG | -0.128 |
| GTCATGCA | -0.157 |
| ACATCGGA | 0.192 |
| AGCCTGTG | -0.197 |
| GACTTTAA | 0.0727 |
| CACTGCCG | 0.189 |
| ATCTCTAC | -0.208 |
| AGGCCGAG | 0.136 |
| TGGCTGAA | -0.182 |

| Sequence | PBM E-score |
| --- | --- |
| ATGTCGGG | 0.306 |
| CAGATCGA | -0.181 |
| AACAACTG | -0.206 |
| GATAAGGA | -0.155 |
| GGAAATGA | -0.0336 |
| AACACTAA | -0.111 |
| CGCTAGCA | -0.0347 |
| AATCACGT | -0.0522 |
| GCACGAAC | -0.119 |
| AGAGCACG | -0.0748 |
| GGAATCAC | 0.24 |
| CCATCTAA | -0.192 |
| TTCTAAAA | 0.132 |
| GTTAAAAC | 0.262 |
| GACCTAGA | 0.113 |
| CGCGTTAC | 0.118 |
| CATAACGG | 0.109 |
| CGTCCTAA | -0.169 |
| TACTCTGA | 0.00917 |
| ATAATGCC | 0.386 |
| CATTTCCC | 0.115 |
| GCGTGCAC | -0.138 |
